This is an account of results in publication PMC12820563, “FoxP3 forms a head-to-head dimer in vivo and stabilizes its multimerization on adjacent microsatellites”.

Some of the results follow.

The target of this experiment is T1, MBP-FoxP1dN (Mus musculus, UniProt P58462 326-579).
T1 sequence: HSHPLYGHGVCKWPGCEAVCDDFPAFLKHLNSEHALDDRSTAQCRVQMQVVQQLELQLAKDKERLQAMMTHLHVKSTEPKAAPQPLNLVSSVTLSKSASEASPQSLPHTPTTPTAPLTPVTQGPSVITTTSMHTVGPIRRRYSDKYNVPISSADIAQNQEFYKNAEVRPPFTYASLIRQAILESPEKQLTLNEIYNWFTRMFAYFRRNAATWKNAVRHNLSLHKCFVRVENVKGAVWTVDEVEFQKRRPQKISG
Briefly: PD-seq (MBP pull-down with sequencing); 20 mM Tris-HCl pH 7.5, 100 mM NaCl, 1.5 mM MgCl2, 0.4 uM protein, 0.1 uM dsDNA library, 30 min, room temperature, amylose pull-down; high values mean tight binding. To be noted: protein: recombinant; tags: His6-MBP; chain copies: 2; dsDNA, one strand shown. The method in brief:
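Protein and DNA were mixed at 0.4 µM and 0.1 µM and held for 30 min at room temperature in Tris pH 7.5 buffer with NaCl and MgCl2; the protein was a His6-MBP-tagged, N-terminally truncated mouse FoxP3 or FoxP1 fragment from E. coli, and the DNA a Klenow-filled double-stranded degenerate library. Amylose resin captured the complexes, which were washed three times. Binding is read as reads-per-million enrichment of pull-down versus input after Illumina sequencing, with replicates pooled.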
On to “GATGATTGTTCTCCCAGCTGATGAATTGAGTGAATCGAGTAAACAAATTTTCCTAATCTTTCTGTTCAAGCGCCATCTAC”, for which the binding signal is 0.904 RPM ratio (pull-down/input).

With “GATGATTGTTCTCCCAGCTGATGAATTTGTCACTTCGAGTAAACAAATTTTCCTAATCTTTCTGTTCAAGCGCCATCTAC”, the binding signal was 1.14 RPM ratio (pull-down/input).

Turning to “GATGATTGTTCTCCCAGCTGATGAATTCCTGGTGTCGAGTAAACAAATTTTCCTAATCTTTCTGTTCAAGCGCCATCTAC”, the binding signal is 0.832 RPM ratio (pull-down/input).

Take “GATGATTGTTCTCCCAGCTGATGAATTAACGCTGTCGAGTAAACAAATTTTCCTAATCTTTCTGTTCAAGCGCCATCTAC”: the binding signal was 0.97 RPM ratio (pull-down/input).

Turning to “GATGATTGTTCTCCCAGCTGATGAATTGACGAAGTCGAGTAAACAAATTTTCCTAATCTTTCTGTTCAAGCGCCATCTAC”, the binding signal is 0.97 RPM ratio (pull-down/input).

For “GATGATTGTTCTCCCAGCTGATGAATTCCCCGCCTCGAGTAAACAAATTTTCCTAATCTTTCTGTTCAAGCGCCATCTAC”, the binding signal was 0.856 RPM ratio (pull-down/input).

With “GATGATTGTTCTCCCAGCTGATGAATTCTTTAAGTCGAGTAAACAAATTTTCCTAATCTTTCTGTTCAAGCGCCATCTAC”, the binding signal was 0.837 RPM ratio (pull-down/input).

In the case of “GATGATTGTTCTCCCAGCTGATGAATTTAACGCTTCGAGTAAACAAATTTTCCTAATCTTTCTGTTCAAGCGCCATCTAC”, the binding signal was 0.91 RPM ratio (pull-down/input).

For the sequence “GATGATTGTTCTCCCAGCTGATGAATTCCAGTAGTCGAGTAAACAAATTTTCCTAATCTTTCTGTTCAAGCGCCATCTAC”, the binding signal was 0.79 RPM ratio (pull-down/input).

“GATGATTGTTCTCCCAGCTGATGAATTTATGCAGTCGAGTAAACAAATTTTCCTAATCTTTCTGTTCAAGCGCCATCTAC”: the binding signal was 1.11 RPM ratio (pull-down/input).

Take “GATGATTGTTCTCCCAGCTGATGAATTTCAACCTTCGAGTAAACAAATTTTCCTAATCTTTCTGTTCAAGCGCCATCTAC”: the binding signal is 0.82 RPM ratio (pull-down/input).

Turning to “GATGATTGTTCTCCCAGCTGATGAATTGTTCGTGTCGAGTAAACAAATTTTCCTAATCTTTCTGTTCAAGCGCCATCTAC”, the binding signal is 1.07 RPM ratio (pull-down/input).

For “GATGATTGTTCTCCCAGCTGATGAATTGGTATGTTCGAGTAAACAAATTTTCCTAATCTTTCTGTTCAAGCGCCATCTAC”, the binding signal was 1.27 RPM ratio (pull-down/input).

For the sequence “GATGATTGTTCTCCCAGCTGATGAATTGAACCCCTCGAGTAAACAAATTTTCCTAATCTTTCTGTTCAAGCGCCATCTAC”, the binding signal is 0.779 RPM ratio (pull-down/input).

Regarding “GATGATTGTTCTCCCAGCTGATGAATTTCACGAATCGAGTAAACAAATTTTCCTAATCTTTCTGTTCAAGCGCCATCTAC”, the binding signal is 0.931 RPM ratio (pull-down/input).

As for “GATGATTGTTCTCCCAGCTGATGAATTTTTAGTGTCGAGTAAACAAATTTTCCTAATCTTTCTGTTCAAGCGCCATCTAC”, the binding signal is 1.14 RPM ratio (pull-down/input).

“GATGATTGTTCTCCCAGCTGATGAATTATTCGCGTCGAGTAAACAAATTTTCCTAATCTTTCTGTTCAAGCGCCATCTAC”: the binding signal was 1.05 RPM ratio (pull-down/input).

For “GATGATTGTTCTCCCAGCTGATGAATTGGACACATCGAGTAAACAAATTTTCCTAATCTTTCTGTTCAAGCGCCATCTAC”, the binding signal is 1.03 RPM ratio (pull-down/input).

As for “GATGATTGTTCTCCCAGCTGATGAATTAGAAACATCGAGTAAACAAATTTTCCTAATCTTTCTGTTCAAGCGCCATCTAC”, the binding signal is 1.26 RPM ratio (pull-down/input).

For the sequence “GATGATTGTTCTCCCAGCTGATGAATTAGCGGTCTCGAGTAAACAAATTTTCCTAATCTTTCTGTTCAAGCGCCATCTAC”, the binding signal is 0.852 RPM ratio (pull-down/input).

Regarding “GATGATTGTTCTCCCAGCTGATGAATTCATGGCTTCGAGTAAACAAATTTTCCTAATCTTTCTGTTCAAGCGCCATCTAC”, the binding signal is 0.829 RPM ratio (pull-down/input).

As for “GATGATTGTTCTCCCAGCTGATGAATTCCGTTAATCGAGTAAACAAATTTTCCTAATCTTTCTGTTCAAGCGCCATCTAC”, the binding signal was 0.898 RPM ratio (pull-down/input).

Consider “GATGATTGTTCTCCCAGCTGATGAATTAGGTTAATCGAGTAAACAAATTTTCCTAATCTTTCTGTTCAAGCGCCATCTAC”, for which the binding signal is 0.976 RPM ratio (pull-down/input).

As to “GATGATTGTTCTCCCAGCTGATGAATTGGCACTATCGAGTAAACAAATTTTCCTAATCTTTCTGTTCAAGCGCCATCTAC”, the binding signal is 0.929 RPM ratio (pull-down/input).

Regarding “GATGATTGTTCTCCCAGCTGATGAATTCCGGCCATCGAGTAAACAAATTTTCCTAATCTTTCTGTTCAAGCGCCATCTAC”, the binding signal was 0.801 RPM ratio (pull-down/input).

For “GATGATTGTTCTCCCAGCTGATGAATTTTTCATGTCGAGTAAACAAATTTTCCTAATCTTTCTGTTCAAGCGCCATCTAC”, the binding signal was 0.926 RPM ratio (pull-down/input).

For “GATGATTGTTCTCCCAGCTGATGAATTTCATACGTCGAGTAAACAAATTTTCCTAATCTTTCTGTTCAAGCGCCATCTAC”, the binding signal was 0.937 RPM ratio (pull-down/input).

With “GATGATTGTTCTCCCAGCTGATGAATTTCCGGTCTCGAGTAAACAAATTTTCCTAATCTTTCTGTTCAAGCGCCATCTAC”, the binding signal is 0.754 RPM ratio (pull-down/input).

Regarding “GATGATTGTTCTCCCAGCTGATGAATTCGTCATGTCGAGTAAACAAATTTTCCTAATCTTTCTGTTCAAGCGCCATCTAC”, the binding signal is 0.903 RPM ratio (pull-down/input).

In the case of “GATGATTGTTCTCCCAGCTGATGAATTCTGTGCGTCGAGTAAACAAATTTTCCTAATCTTTCTGTTCAAGCGCCATCTAC”, the binding signal is 0.934 RPM ratio (pull-down/input).

As to “GATGATTGTTCTCCCAGCTGATGAATTCGTAACCTCGAGTAAACAAATTTTCCTAATCTTTCTGTTCAAGCGCCATCTAC”, the binding signal is 0.882 RPM ratio (pull-down/input).

For “GATGATTGTTCTCCCAGCTGATGAATTGTACTTGTCGAGTAAACAAATTTTCCTAATCTTTCTGTTCAAGCGCCATCTAC”, the binding signal was 1.06 RPM ratio (pull-down/input).
